Data as given in PubChem BioAssay AID1645882 (National Center for Advancing Translational Sciences (NCATS), 2021).
Screen size: about 16,000 compounds; about 120 (0.75%) were called active. Another 4% or so got no clear call; they are omitted. Calls follow the shape of the dose curve; as a rule, active = well fitted inhibition curve with a large enough effect; inconclusive = small, poorly fitted or top-dose-only effect; inactive = no such curve, though single readings can be large or run the other way. This is one part of the list.

Molecular target: Rap guanine nucleotide exchange factor 3 (Homo sapiens) (UniProt O95398)
Experiment: Validation qHTS for antagonist of cAMP-regulated guanine nucleotide exchange factor 3 (EPAC1);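 also: plate controls were DMSO for no effect and ATA control for full effect; nearly all actives have a fitted effect of over 75% in size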
Conditions: EPAC1 Rap1B-BODIPY-GDP exchange, fluorescence; series mostly up to 150 µM; activity change, negative = inhibition: at the top concentration
Outline: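 Nucleotide exchange followed as fluorescence loss when BODIPY-GDP leaves Rap1B (480 nm excitation, 540 nm emission), read at 5 min intervals over 30 min. Reaction: 100 nM EPAC1, 250 nM RAP1B-BODIPY-GDP, 50 uM GDP; ATA and DMSO define normalization.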

Chain of UniProt O95398 (O95398 whole entry, looked up): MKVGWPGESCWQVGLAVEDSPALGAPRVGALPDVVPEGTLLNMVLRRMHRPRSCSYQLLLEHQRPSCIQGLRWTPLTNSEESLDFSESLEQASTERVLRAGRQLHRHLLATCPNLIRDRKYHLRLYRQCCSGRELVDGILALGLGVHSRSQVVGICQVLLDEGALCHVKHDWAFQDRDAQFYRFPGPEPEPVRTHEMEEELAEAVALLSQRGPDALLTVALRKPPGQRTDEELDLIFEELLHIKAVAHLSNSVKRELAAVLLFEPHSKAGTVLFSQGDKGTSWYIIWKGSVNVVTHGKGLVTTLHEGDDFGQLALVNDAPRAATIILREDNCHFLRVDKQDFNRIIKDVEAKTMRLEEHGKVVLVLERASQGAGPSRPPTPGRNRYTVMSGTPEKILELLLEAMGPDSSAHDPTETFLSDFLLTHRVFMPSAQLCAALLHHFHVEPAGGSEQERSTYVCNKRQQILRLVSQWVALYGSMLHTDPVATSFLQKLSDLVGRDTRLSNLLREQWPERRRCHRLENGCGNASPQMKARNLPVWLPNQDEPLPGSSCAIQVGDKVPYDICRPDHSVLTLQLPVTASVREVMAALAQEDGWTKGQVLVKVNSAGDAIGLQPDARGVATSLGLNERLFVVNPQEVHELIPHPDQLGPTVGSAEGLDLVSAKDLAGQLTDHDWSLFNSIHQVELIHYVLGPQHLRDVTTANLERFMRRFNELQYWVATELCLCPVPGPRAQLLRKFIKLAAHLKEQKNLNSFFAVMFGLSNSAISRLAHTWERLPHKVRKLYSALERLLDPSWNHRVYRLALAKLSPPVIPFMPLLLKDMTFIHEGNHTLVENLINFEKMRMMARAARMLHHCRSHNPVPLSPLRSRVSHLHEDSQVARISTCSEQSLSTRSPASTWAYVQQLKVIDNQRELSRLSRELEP

Activity change, negative = inhibition, inactive:
Cc1ccsc1C1Cc2c(C(=O)NCc3cccnc3)c(=O)cc(C)n2-c2ccccc2S1 (stereo unspecified) 25.3%
CN1CCN(c2cc(-c3ccccc3C(F)(F)F)ncn2)CC1 13.4%
CC(=O)NCCNc1nc(-c2ccccc2Cl)nc2ccccc12 9.81%
CC(C)NC(=O)N1CCCC2(CCN(C(=O)c3cccc(F)c3)CC2)C1 21%
COCCn1c(=O)c(-c2ccccc2)nc2cncnc21 0.267%
COc1ccccc1C1CN(Cc2cnn(C)c2C)Cc2ccccc2O1 (stereo unspecified) 15.7%
CSC(N)=NCCC[C@H](N)C(=O)O 14.2% [at 75.8 µM]
COc1ccc(-n2c(=O)c(-c3cccs3)nc3cnc(OC)nc32)cc1 16.2%
Cc1cccc(CNc2ncnc3ccc(-c4cccc(C#N)c4)cc23)c1 29%
C[C@H]1CCC(=O)N([C@H](CSc2ccc(Br)cc2)Cc2ccccc2)CC1 -3.46%
COC(=O)c1ccccc1-c1cc(C)cc2c1OC(CNC(=O)c1ccn(C)n1)C2 (stereo unspecified) 17.4%
CN1CCC(=C2c3ccccc3CCc3sccc32)CC1
Cc1cnc(CNc2ncnc3ccc(-c4ccccc4Cl)cc23)cn1 2.92%
N=c1ccn2c(n1)OCC1C2O[C@@H](O)[C@H]1O (stereo partly specified) 5.06%
COc1cccc(CNC(=O)c2c(OC)cc(=O)n3c2CCN(C(=O)c2ccccc2Cl)CC3)c1 12.9%
OCC(O)CS (stereo unspecified) 11.9%
COCC(=O)N1CCC2(CC1)CN(c1ccc(-c3ccccc3)cc1)C2 1.54%
Cc1cccc(C)c1OCC(N)C(C)C (stereo unspecified) -7.91% [at 75.8 µM]
CSc1ncccc1C(=O)NCC1Cc2cc(-c3cnccn3)cc(Cl)c2O1 (stereo unspecified) -3.86%
C[C@H](CSC(=O)c1ccccc1)C(=O)N1C[C@@H](Sc2ccccc2)C[C@H]1C(=O)O 24.6%
CN1CCOC(c2ccccc2)c2ccccc2C1 (stereo unspecified)
COc1cc2nc(N3CCCC(O)C3)c(CNCc3ccccc3F)cc2c(OC)c1OC (stereo unspecified) 3.12%
CN(C)C(=O)OC1=C(c2ccccc2)Sc2ccccc2-n2cccc21 -8.09%
O=C(Oc1ccccc1)N1CCC2(CCCN(c3cccc(-c4ccccc4)c3)C2)CC1 2.53%
COc1ccc(C(=O)N2CCC3(CC2)CN(c2ncccn2)C3)cc1 1.47%
CC(C)C[C@H]1C(=O)N2CCC[C@H]2[C@]2(O)O[C@](NC(=O)[C@@H]3C=C4c5cccc6[nH]c(Br)c(c56)C[C@H]4N(C)C3)(C(C)C)C(=O)N12
COc1ccc2[nH]cc(CCNc3cc(-c4ccc5c(c4)OCO5)ncn3)c2c1 3.19%
NCCNS(=O)(=O)c1cccc2c(Cl)cccc12
COCCn1c(=O)c(CCc2ccccc2)nc2cnc(Nc3cccc(OC)c3)nc21 2.27%
Nc1ncnc2c1ncn2[C@@H]1O[C@H](COP(=O)(O)CP(=O)(O)OP(=O)(O)O)[C@@H](O)[C@H]1O
COC(=O)C1=C(C)NC(C)=C([N+](=O)[O-])[C@@H]1c1ccccc1C(F)(F)F -11.3%
Cc1c(I)c(=O)n(-c2ccccc2)n1C 22%
Cc1ccccc1C(OCCN(C)C)c1ccccc1 (stereo unspecified)
CCC1CN(CC(=O)NCc2cc(C)n(C)n2)Cc2cc(OC)ccc2O1 (stereo unspecified) 9.43%
O=C(c1cccc(F)c1)N1CCC2(CCN(Cc3ccncc3)CC2)CC1 -3.12%
O=C(c1csnn1)N1CCC2(CC1)CCN(c1ccccn1)CC2 20.3%
CCCCC#Cc1nc(NC)c2ncn([C@@H]3O[C@@H](CO)[C@H](O)[C@H]3O)c2n1 2.98%
Cn1cccc1C(=O)N1CCC2(CCCN(C(=O)Nc3ccccc3)C2)CC1 15.8%
OC1(c2ccc3c(c2)CN(Cc2ccco2)CCO3)CCN(c2ccccc2F)CC1 -0.132%
CO[C@H]1[C@H](NC(=O)c2ccsc2)c2ccccc2C12CCN(Cc1cccc3ncccc13)CC2 14.9%
O=C(NCC1Cc2cccc(-c3cnccn3)c2O1)c1ccc2c(c1)OCCO2 (stereo unspecified) -2.15%
NCCCC(N)(C(=O)O)C(F)F (stereo unspecified)
Cc1c(C(=O)NCCN2CCOCC2)cnn1-c1nccc(-c2cc3ccccc3o2)n1 26.5%
COc1cccc(-c2ccnc(-n3ncc(C(=O)NCC4(N5CCCCC5)CCCC4)c3C)n2)c1 15.2%
Cc1ccc2c(c1)CN(CCNC(=O)c1cc3ccccc3oc1=O)CC(C)O2 (stereo unspecified) -2.23%
O=C(Nc1ccc([N+](=O)[O-])cc1)Nc1ccc([N+](=O)[O-])cc1 9.73%
CCCN1CCC(=O)N([C@H](CO)c2ccccc2)CC1 13.2%
CCCCCCCCCCCC1=C(O)C(=O)C=C(O)C1=O
CC(=O)Nc1ccc(OCCOCCOc2ccc(NC(C)=O)cc2)cc1 8.8%
N#CCCn1c(=O)c(-c2ccccc2)nc2cnc(Oc3cccc(Cl)c3)nc21 9.7%
COC(=O)N1CCC2(CCCN(C(=O)Nc3cccc(F)c3)C2)CC1 17.5%
COc1c2ccoc2cc2oc(=O)ccc12
COc1cc(-c2c(-c3ccc4c(c3)OCO4)noc2-c2ccsc2)ccc1F 4.4%
CNc1ncncc1-c1ccccc1OC 25.9%
O=C(c1ccco1)N1CCC2(CC1)CN(c1ccccc1)C2 6.04%
COC(=O)c1ccccc1-c1cc(C)cc2c1OC(CNC(=O)c1cc(C)on1)C2 (stereo unspecified) -2.93%
CC(C)(C)CC(C)(C)N=C1Nc2ccccc2NC12C[C@H]1CCC(=O)N3CC[C@@H](C2)[C@@H]13 (stereo partly specified) -14.6%
Cc1noc(C)c1C(=O)N1CCC2(CC1)CCN(c1ccccn1)CC2 21.3%
O=C1CCc2ccc(OCCCCN3CCN(c4cccc(Cl)c4Cl)CC3)cc2N1 18.3%
COc1ccccc1C1CN(Cc2cccn2-c2ncccn2)Cc2ccccc2O1 (stereo unspecified) -9.8%
CCCCCCCCCCCCCCCC(=O)C(F)(F)F -7.81%
Cc1cnc(SCc2ccccn2)nc1C1CCCN(C(=O)c2ccc3c(c2)OCO3)C1 (stereo unspecified) 2.88%
CN(C)CCOC(c1ccc(Cl)cc1)c1ccccn1 (stereo unspecified)
COc1ccc(NC(=O)N2CCC3(CC2)CCN(S(=O)(=O)c2ccccc2)CC3)cc1 19.3%
NC(=O)NC1NC(=O)NC1=O (stereo unspecified)
COc1cc(Cl)c(C)cc1N1C(=O)[C@@H]2C[C@H]1CN2Cc1ccccn1 10.5%
O=C(c1ccco1)N1CCC[C@@]2(CCN(Cc3nccs3)C2)C1 16%
COc1cc(-c2cc(C)c3c(OC)ccc(OC)c3n2)cc2c1OCCN(C(=O)CCn1ccc(C)n1)C2 10.9%
Nc1c(Br)cc(C=O)cc1Br 7.72%
COc1cc2c(cc1O)C(Cc1ccc(O)cc1)[N+](C)(C)CC2 (stereo unspecified) 7.24%
O=c1cc(-c2ccc(O)cc2)oc2cc(O)ccc12 -2.75%
N[C@H](CCC(=O)NCC(=O)O)C(=O)O -15.4%
O=C(c1csnn1)N1CCC[C@@]2(CCN(c3ncccn3)C2)C1 16.4%
CCCN=C(N)NCCC[C@H](N)C(=O)O 15.5%
CCCCN(CCC(=O)O)c1ccc(/C=C/c2ccnc3ccccc23)cc1 17.7%
CN1CCN(c2ncc3nc(-c4ccccc4)c(=O)n(C4CC4)c3n2)CC1 -9.34%
COC(=O)C1=C(C)NC(C)=C(C(=O)OCC(C)C)C1c1ccccc1[N+](=O)[O-] (stereo unspecified) -24.2%
CC1(C)CCC(C)(C)c2cc(C(=O)Nc3ccc(C(=O)O)cc3)ccc21 15.7%
CCOC(=O)N(C(=O)c1ccccc1)c1ccccc1 3.78%
COc1ccc(C(=O)Nc2ccccc2CCC2CCCCN2C)cc1 (stereo unspecified) 30.4%
CN(C)c1ccc(-c2nccc(NCc3ccccc3)n2)cc1 9.7%
COc1cccc(CN2C(=O)NC(C)(C3CCN(Cc4cc(Cl)ccc4O)CC3)C2=O)c1OC (stereo unspecified) -2.44%
COc1ccccc1CNc1cc(-c2ccccc2OC)ncn1 8.72%
CN(C)c1ccc(-c2nc(NCCN3CCOCC3)c3ccccc3n2)cc1 10.6%
CC(=O)N1CCN(C)CC1
CNc1c2c(nn1C)CCCC2 8.58%
CN1CCN(c2c(F)cc3c(=O)c(C(=O)O)cn4c3c2SCC4)CC1 5.27%
COC(=O)[C@H]1[C@H]2C[C@@H]3c4[nH]c5cc(OC)ccc5c4CCN3C[C@H]2C[C@@H](OC(=O)/C=C/c2cc(OC)c(OC)c(OC)c2)[C@@H]1OC
NCCCC[C@H](NC(=O)[C@@H]1CCCN1C(=O)[C@@H]1CSSC[C@H](N)C(=O)N[C@@H](Cc2ccc(O)cc2)C(=O)N[C@@H](Cc2ccccc2)C(=O)N[C@@H](CCC(N)=O)C(=O)N[C@@H](CC(N)=O)C(=O)N1)C(=O)NCC(N)=O
N#Cc1cccc(-c2nccc(NCc3ccccc3)n2)c1 -19.7%
N#CCCn1c(=O)c(-c2ccc(F)cc2)nc2cnc(N3CCOCC3)nc21 17.8%
CCC(C)[C@H]1COCCS(=O)(=O)N1Cc1ccc(Br)cc1 (stereo partly specified) -19.4%
COC(=O)C1=C(C)NC(C)=C(C(=O)OCCN(C)Cc2ccccc2)C1c1cccc([N+](=O)[O-])c1 (stereo unspecified)
COc1ccc(-n2c(CNC(=O)c3cccc4ccccc34)nnc2SC)cc1 1.11%
Oc1cc(-c2nc3ccccc3s2)cc2c1OCCN(Cc1cccn1-c1ncccn1)C2 -17.4%
CCCCN1CC[C@H]2C=CC[C@@H](C(=O)NCc3cccnc3)[C@H]2C1=O 7.66%
N#Cc1ccccc1-c1nc(NCCN2CCOCC2)c2ccccc2n1 10.7%
Cc1ccccc1CNc1ncnc2c1ncn2[C@@H]1O[C@H](CO)[C@@H](O)[C@H]1O 15.3%
O=C(c1cnccn1)N1CCC2(CCN(Cc3ccncc3)CC2)CC1 20.9%
Cc1noc(C)c1C(=O)N1CCC2(CCCN(c3ccccc3)C2)CC1 12.6%
COC(=O)N1CCC[C@@]2(CCN(C(=O)Nc3cccc(C#N)c3)C2)C1 4.61%
